Test results from article PMC4336329 (PLoS ONE, 2015).
The whole screen tested about 310,000 compounds, of which about 2,200 (0.71%) showed an effect of 50% or more. Effects have a minus sign here. The list shows a part of the results.

The compounds below were run against human ether-à-go-go-related gene (hERG) potassium channel (human, UniProt Q12809) (assay: primary screen, population patch clamp on CHO cells stably expressing hERG).
Chain of human ether-à-go-go-related gene (hERG) potassium channel (Q12809 whole entry, looked up): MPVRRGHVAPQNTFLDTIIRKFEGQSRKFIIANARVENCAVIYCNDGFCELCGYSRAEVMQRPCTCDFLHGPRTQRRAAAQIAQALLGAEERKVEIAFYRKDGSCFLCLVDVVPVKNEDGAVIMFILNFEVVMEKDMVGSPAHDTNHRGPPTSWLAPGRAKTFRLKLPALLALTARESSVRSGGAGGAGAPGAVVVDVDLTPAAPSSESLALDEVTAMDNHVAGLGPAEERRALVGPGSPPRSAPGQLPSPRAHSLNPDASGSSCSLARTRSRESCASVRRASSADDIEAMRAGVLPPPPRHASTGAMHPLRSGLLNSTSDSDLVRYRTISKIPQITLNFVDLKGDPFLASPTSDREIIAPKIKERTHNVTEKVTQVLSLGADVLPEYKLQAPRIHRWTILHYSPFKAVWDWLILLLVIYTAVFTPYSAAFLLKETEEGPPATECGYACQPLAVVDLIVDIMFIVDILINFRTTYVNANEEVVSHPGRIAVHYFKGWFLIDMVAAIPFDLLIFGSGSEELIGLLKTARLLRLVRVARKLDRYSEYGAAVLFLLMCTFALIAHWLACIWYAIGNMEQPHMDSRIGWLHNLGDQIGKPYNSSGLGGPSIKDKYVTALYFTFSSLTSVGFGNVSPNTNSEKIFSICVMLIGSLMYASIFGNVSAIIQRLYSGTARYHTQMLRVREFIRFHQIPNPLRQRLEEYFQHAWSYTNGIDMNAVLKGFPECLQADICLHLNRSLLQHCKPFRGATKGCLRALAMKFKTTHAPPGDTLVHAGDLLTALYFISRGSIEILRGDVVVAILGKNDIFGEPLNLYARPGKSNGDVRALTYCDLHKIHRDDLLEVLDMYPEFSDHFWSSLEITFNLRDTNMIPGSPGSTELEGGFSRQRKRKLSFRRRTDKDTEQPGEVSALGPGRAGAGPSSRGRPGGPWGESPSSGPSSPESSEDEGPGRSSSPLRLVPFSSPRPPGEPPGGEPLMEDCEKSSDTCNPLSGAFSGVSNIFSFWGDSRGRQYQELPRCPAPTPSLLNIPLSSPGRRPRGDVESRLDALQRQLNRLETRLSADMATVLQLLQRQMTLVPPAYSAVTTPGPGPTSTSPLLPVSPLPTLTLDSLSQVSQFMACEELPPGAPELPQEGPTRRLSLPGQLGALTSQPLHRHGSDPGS

Compound	hERG current change (%, negative = inhibition) at 1uM [%]
Cc1cc(C(=O)N/N=C/c2ccc(-c3cccc(Cl)c3)o2)n[nH]1	17.6
COc1ccc2sc(-c3ccc(N(C)C)cc3)c(C#CC(C)(C)O)c2c1	10.4
COc1ccc(S(=O)(=O)NCC2CCCN(C(=O)c3ccco3)C2)cc1 (stereo not shown)	14.1
Cc1ccc(C2OCC3(CO2)COC(c2ccc(C)cc2)OC3)cc1 (stereo not shown)	6.71
CCC(C)NCCOCCOc1cc(C)c(Cl)c(C)c1.O=C(O)C(=O)O (stereo not shown)	-1.43
Cn1c(=O)oc2cc(S(=O)(=O)N3CCN(c4ccccc4)CC3)ccc21	6.21
CN(C)CCCNc1nc(N)c([N+](=O)[O-])c(NCc2ccccc2)n1	5.97
O=c1[nH]c2c(c(=O)[nH]1)CCC2	3.5
O=C1CSC(c2cccc(O)c2)N1Cc1ccccc1 (stereo not shown)	14.3
CN(C)c1cccc(C(=O)NNC(=O)/C=C/c2cccs2)c1	15.1
Cc1cccc(N2CCN(S(=O)(=O)c3c(C)[nH]c(=O)[nH]c3=O)CC2)c1C	34
O=C(CN(Cc1ccccc1Cl)C(=O)CCC(=O)Nc1nccs1)NCC1CCCO1 (stereo not shown)	17.1
CCCOc1ccc(C2CC(=O)NC2=O)cc1 (stereo not shown)	10.2
O=C(Cc1ccc(Cl)cc1)N/N=C/c1c(Cl)cccc1Cl	6.71
Cc1ccc(C)c(OCCC(=O)OCC(=O)Nc2cccc(S(=O)(=O)N3CCCC3)c2)c1	12
COc1ccc(-n2ncc(C(C)NS(=O)(=O)c3cccs3)c2C)cc1 (stereo not shown)	15.1
CC(C)CNC(=O)CC(c1ccccc1)c1c(O)ccc2ccccc12 (stereo not shown)	10.6
CC(=O)c1sc(NS(=O)(=O)c2ccc(C)cc2)nc1C	15.5
CN1CCN(/N=C/c2ccc(-c3ccccc3)cc2)CC1	3.85
CC(C)OC(=O)c1ccc(N2CCN(c3ccccc3F)CC2)nc1	13.6
CC(=O)N(c1nc(CCl)cs1)c1ccc(C)cc1C	11
CC(C)(C)c1cc(C(=O)NCc2ccco2)ccn1	21.2
CC(C)(C)OC(=O)NC(=NCCCc1cn(CC(=O)N2CCN(C(=O)OC(C)(C)C)CC2)nn1)NC(=O)OC(C)(C)C	13.1
O=C(O)C(=O)O.OCCNCCSc1ccc(Cl)cc1	-6.24
CCOC(=O)Cn1nnnc1C(C(C)C)N(Cc1cc2c(C)cc(C)cc2[nH]c1=O)C1CCCC1 (stereo not shown)	20.9
